The results in this text go back to a collection of fitness landscapes (doi:10.1126/science.1257360).

First the molecules themselves.
B1: PhoQ; a variant is named by its letters at X, in order, P23837 (parent)
chain: MKKLLRLFFPLSLRVRFLLATAAVVLVLSLAYGMVALIGYSVSFDKTTFRLLRGESNLFYTLAKWENNKLHVELPENIDKQSPTMTLIYDENGQLLWAQRDVPWLMKMIQPDWLKSNGFHEIEADVNDTSLLLSGDHSIQQQLQEVREDDDDAEMTHSVAVNVYPATSRMPKLTIVVVDTIPVELKSSYMVWSWFIYVLSANLLLVIPLLWVAAWWSLRPIEALAKEVRELEEHNRELLNPATTRELTSLVRNLNRLLKSERERYDKYRTTLTDLTHSLKTPLXXLQXXLRSLRSEKMSVSDAEPVMLEQISRISQQIGYYLHRASMRGGTLLSRELHPVAPLLDNLTSALNKVYQRKGVNISLDISPEISFVGEQNDFVEVMGNVLDNACKYCLEFVEISARQTDEHLYIVVEDDGPGIPLSKREVIFDRGQRVDTLRPGQGVGLAVAREITEQYEGKIVAGESMLGGARMEVIFGRQHSAPKDE

The other results are listed elsewhere or left out.

Variants of B1 are the subject of this experiment. Nature of the experiment: enrichment ratio after two sorts for PhoP signalling (ratio (wild type AVST 3.29)); higher = more functional. Conditions: with PhoP (E. coli).
As to VATH, the enrichment ratio was at most 0.25. In the case of QLKT it was at most 0.25. Take TGNM: the enrichment ratio was 2.24.

With VYSP, the enrichment ratio was at most 0.25. In the case of TTLN it was 23.9; in that of RTAP, at most 0.25. In the case of FEFV it was 1.52; in that of PVFI, at most 0.25; in that of WEAV, at most 0.25.

On to WMRL, for which the enrichment ratio was at most 0.25.

HRRD: the enrichment ratio was at most 0.25. For GDRY, the enrichment ratio was at most 0.25. As for TPPK, the enrichment ratio was at most 0.25.

For the variant FLIA, the enrichment ratio was at most 0.25.

Take IKNT: the enrichment ratio is at most 0.25.

Take QGTL: the enrichment ratio was determined as 4.13. In the case of KYMT it was at most 0.25. Take RMYR: the enrichment ratio was at most 0.25. In the case of LYCH it was at most 0.25. In the case of YLLC it was at most 0.25. With RCYL, the enrichment ratio is at most 0.25. In the case of WVMF it was at most 0.25; in that of TRYM, 1.45; in that of QDKR, at most 0.25. In the case of QMVQ it was at most 0.25; in that of HNMK, at most 0.25.

For FWAG, the enrichment ratio is at most 0.25. Turning to GIWY, the enrichment ratio was at most 0.25.

For ATPW, the enrichment ratio was at most 0.25.

Regarding MFTT, the enrichment ratio was at most 0.25.

Consider GSVD, for which the enrichment ratio is at most 0.25. For the variant CISH, the enrichment ratio was at most 0.25. On to KDLG, for which the enrichment ratio is at most 0.25. In the case of NLMK, the enrichment ratio was at most 0.25. NQDN: the enrichment ratio was at most 0.25. On to YMVQ, for which the enrichment ratio is at most 0.25. In the case of KSKR it was at most 0.25. In the case of FKVM it was at most 0.25; in that of PHMP, at most 0.25; in that of THVC, at most 0.25. For IENM, the enrichment ratio was at most 0.25. In the case of SERG it was at most 0.25; in that of YLNW, at most 0.25. With DAYH, the enrichment ratio was at most 0.25. As for RKPQ, the enrichment ratio is at most 0.25. In the case of QCIY it was at most 0.25. In the case of SQCV it was 6.68; in that of IPYP, at most 0.25; in that of WQNE, at most 0.25. In the case of SESM it was 10.5; in that of VGPG, at most 0.25; in that of DYAQ, at most 0.25. Regarding RWDP, the enrichment ratio was at most 0.25. On to DTPG, for which the enrichment ratio was at most 0.25. Regarding PKVF, the enrichment ratio is at most 0.25.

Regarding ENWG, the enrichment ratio was at most 0.25.

As to PCWF, the enrichment ratio is at most 0.25. Consider DWLA, for which the enrichment ratio is at most 0.25.

Consider DTIK, for which the enrichment ratio is at most 0.25.

Turning to TRST, the enrichment ratio was at most 0.25. In the case of YQVF it was at most 0.25. In the case of MMCW it was at most 0.25; in that of VYQW, at most 0.25; in that of GWVF, at most 0.25. In the case of MWSI it was at most 0.25; in that of DRMR, at most 0.25; in that of RNFI, at most 0.25.

Consider LHGF, for which the enrichment ratio is at most 0.25. In the case of MFQQ it was at most 0.25; in that of LLAR, at most 0.25. In the case of RKCA, the enrichment ratio was at most 0.25. In the case of TSSC it was 12.8; in that of KKLI, at most 0.25; in that of PFIY, at most 0.25. As to LARY, the enrichment ratio is at most 0.25. In the case of FRMP it was at most 0.25.

For the variant EKCN, the enrichment ratio is at most 0.25.

Turning to HTGM, the enrichment ratio was at most 0.25. In the case of QMHV it was at most 0.25.

For the variant HCRR, the enrichment ratio is at most 0.25.

With ITSM, the enrichment ratio stood at 2.11. In the case of NWHN it was at most 0.25; in that of TSTE, 6.55. As for AEIS, the enrichment ratio was found to be 10.8. Regarding FNLQ, the enrichment ratio was determined as 1.86. For the variant SCWR, the enrichment ratio was at most 0.25. As to PPMN, the enrichment ratio is at most 0.25. On to SKIG, for which the enrichment ratio was found to be 0.558.

As for HIDI, the enrichment ratio is at most 0.25. Take FHME: the enrichment ratio is at most 0.25.

For SFER, the enrichment ratio is at most 0.25. For the variant KRVM, the enrichment ratio was at most 0.25. In the case of VRKQ it was at most 0.25.

For NMYC, the enrichment ratio was at most 0.25. Turning to LKNV, the enrichment ratio was at most 0.25. In the case of WEDH it was at most 0.25; in that of LTNS, at most 0.25; in that of FQNE, at most 0.25. In the case of FYRS it was at most 0.25. As for PNFN, the enrichment ratio was at most 0.25. In the case of HPAL it was at most 0.25; in that of DEQF, at most 0.25; in that of RSVD, 0.314. In the case of FGNT it was at most 0.25; in that of MSCT, 0.559.

RFDC: the enrichment ratio was found to be 0.461. In the case of EHAV it was at most 0.25; in that of EVDA, at most 0.25; in that of YNQN, at most 0.25. In the case of TVPM it was at most 0.25.

As to ANEI, the enrichment ratio is at most 0.25. In the case of YFCV it was at most 0.25.

YCCV: the enrichment ratio is at most 0.25. On to QCAM, for which the enrichment ratio was 4.77. Take YRVE: the enrichment ratio is at most 0.25.

VMKF: the enrichment ratio is at most 0.25. For the variant NHKR, the enrichment ratio was at most 0.25. Regarding HYWE, the enrichment ratio was at most 0.25. In the case of WEHH it was at most 0.25; in that of FPIK, at most 0.25. In the case of DGLF it was at most 0.25; in that of KSDC, at most 0.25. In the case of WDQM it was at most 0.25; in that of YVWN, at most 0.25.

GFFI: the enrichment ratio was at most 0.25. In the case of SIKD it was at most 0.25; in that of YRSK, at most 0.25. In the case of ITLN it was 1.49; in that of IEDV, at most 0.25. In the case of SQFE it was at most 0.25. On to YRYF, for which the enrichment ratio was at most 0.25. In the case of TNFY it was at most 0.25; in that of NLKN, at most 0.25. In the case of HVIF it was at most 0.25; in that of KPVN, at most 0.25; in that of QFQG, at most 0.25. In the case of VVYS it was at most 0.25. As for NWSK, the enrichment ratio is at most 0.25.

As to FWER, the enrichment ratio is at most 0.25.

As for AFEP, the enrichment ratio was at most 0.25. On to RPFM, for which the enrichment ratio was at most 0.25. In the case of DQTG it was at most 0.25; in that of KSMT, at most 0.25.

KQPV: the enrichment ratio was at most 0.25. In the case of NMTP it was at most 0.25; in that of FDYT, at most 0.25. In the case of RNPR it was at most 0.25; in that of IPTN, at most 0.25; in that of AQYP, at most 0.25. As for HRRA, the enrichment ratio is at most 0.25.

In the case of GSLA, the enrichment ratio turned out to be 6.7. As to DRTF, the enrichment ratio was at most 0.25. In the case of DQFF it was at most 0.25.
